Measured values as given in PubChem BioAssay AID1645852 (National Center for Advancing Translational Sciences (NCATS), 2021).
Hit rate of the full screen: of about 1,200 compounds, about 160 (13%) were called active. The inconclusive results got no clear call from the source; some entries with a clear call stand among them for comparison. The call rests on the fitted dose curve; in most records, active means well fitted inhibition curve with a large enough effect; inconclusive means small, poorly fitted or top-dose-only effect; inactive means no such curve, though single readings can be large or run the other way. Potencies of inconclusive entries are doubtful fits and often do not repeat.

The compounds below were run against Inositol hexakisphosphate kinase 1 (Homo sapiens) (UniProt Q92551) (assay: Confirmatory qHTS assay for small molecule inhibitors of Inositol hexaphosphate kinase 1 (IP6K1)). Conditions: recombinant IP6K1 kinase, ADP-Glo luminescence, 2 h; series mostly up to 49 µM.
UniProt Q92551, sequence (Q92551 whole entry, looked up): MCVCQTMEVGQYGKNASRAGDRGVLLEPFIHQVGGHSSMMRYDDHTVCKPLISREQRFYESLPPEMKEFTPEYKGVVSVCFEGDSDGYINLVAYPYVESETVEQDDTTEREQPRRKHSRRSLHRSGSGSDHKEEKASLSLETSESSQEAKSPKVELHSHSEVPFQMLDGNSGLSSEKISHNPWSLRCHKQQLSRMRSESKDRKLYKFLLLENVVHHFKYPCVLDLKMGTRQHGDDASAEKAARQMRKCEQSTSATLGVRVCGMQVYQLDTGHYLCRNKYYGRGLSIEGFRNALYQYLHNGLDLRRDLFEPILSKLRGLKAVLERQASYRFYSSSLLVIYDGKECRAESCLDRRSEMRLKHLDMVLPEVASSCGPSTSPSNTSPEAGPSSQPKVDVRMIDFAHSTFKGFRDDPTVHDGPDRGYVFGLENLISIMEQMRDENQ
Summary of the method: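 Human IP6K1 with ATP and IP6 (1.3 mM and 130 uM in dispensed mix) and compounds; 2 h reaction at RT, ADP formation detected by ADP-Glo Max luminescence.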
Further: nearly all actives have a fitted effect of over 65% in size.
Potency means the concentration at half of the fitted maximal effect; tags describe the fitted curve by direction and shape.

Compound | Potency
CCOc1nccn2c(-c3ccc(CNc4ccc(OC)nc4)cc3)cnc12 | inconclusive: 37.5 µM [inhibitor, single point]
COc1ccc(-c2cnc3[nH]cc(CC(=O)Nc4ccncc4)c3c2)cc1 | inconclusive: 16.8 µM [inhibitor, partial curve]
Cc1cc(Nc2nc(NC(C)c3ccc(F)cc3)c(C#N)cc2F)n[nH]1 (stereo not drawn) | inactive
CN1CCC(Nc2nc(Nc3ccc(Oc4ccccc4)cc3)c3c(=O)[nH]cc(Br)c3n2)CC1 | inconclusive: 3.66 µM [inhibitor, partial curve]
Fc1ccccc1CNCc1ccc(-c2ccnc3[nH]ccc23)cc1 | inconclusive: 18.4 µM [inhibitor, partial curve]
Cc1ccc2c(CNCc3cccc(Cl)c3)c(C(=O)O)n(Cc3ccc(F)cc3Cl)c2c1 | inactive
O=C(Cn1cc(SCc2cccc(F)c2)c2ccccc21)N1CCCC1 | inconclusive: 23.1 µM [inhibitor, partial curve, poor fit]
CC[C@H](CC#N)OC(=O)N[C@@H](C)c1cccc(NC(=O)Nc2ccc(-c3cnco3)c(OC)c2)c1 | inconclusive: 4.11 µM [inhibitor, partial curve]
Cc1ccc(C(=O)Nc2ccc(CN3CCN(C)CC3)c(C(F)(F)F)c2)cc1C#Cc1cnc2[nH]ncc2c1 | active: 7.31 µM
Cc1c(O)nc(SCC(=O)Nc2ccc(Cl)cc2Cl)n(-c2ccc(F)cc2)c1=O | inconclusive: 14.6 µM [inhibitor, partial curve]
CC(C)(C)c1ccc(CSC2=Nc3ccccc3C3=NC(CC(=O)NCc4cccs4)C(=O)N23)cc1 (stereo not drawn) | inactive
CCOC(=O)Cn1c(=N)n(Cc2ccc(C(C)(C)C)cc2)c2ccccc21 | inactive
OCCn1cc(-c2cnc3nnn(Cc4ccc5ncccc5c4)c3n2)cn1 | inactive
CNC(=O)c1cccc(-c2cnc3[nH]cc(CC(=O)Nc4ccccc4Cl)c3c2)c1 | inconclusive: 13.3 µM [inhibitor, partial curve]
COc1ccc(-c2cnc3[nH]cc(CC(N)=O)c3c2)cc1OC | inconclusive: 14.9 µM [inhibitor, partial curve]
c1cc(N[C@@H]2CCNC2)nc(-c2cnc3ccc(-c4cn[nH]c4)cn23)c1 | inconclusive: 16.4 µM [inhibitor, partial curve]
CNC(=O)c1ccccc1Nc1cc(Nc2ccc(N3CCOCC3)cc2OC)ncc1C(F)(F)F | inconclusive: 4.61 µM [inhibitor, partial curve]
O=C(c1ccc(F)c(F)c1Nc1ccc(I)cc1F)N1CC(O)([C@H]2CCCCN2)C1 | inactive
